PubChem BioAssay AID1508624 (National Center for Advancing Translational Sciences (NCATS), 2021)
About 120 (0.25%) of roughly 48,000 compounds were called active. About 4% were inconclusive and are not listed. Calls follow the shape of the dose curve; as a rule, active = well fitted activation curve with a large enough effect; inconclusive = small, poorly fitted or top-dose-only effect, or another doubt; inactive = no such curve, though single readings can be large or run the other way. The list shows a part of the results.

Assay: Primary qHTS for Identification of Small Molecule Activators of Huntingtin-Antisense Promoter Activity; also: nearly all actives have a fitted effect of over 55% in size
Conditions: HEK293 HTT-AS promoter firefly luciferase reporter, 24 h; series mostly up to 57.5 µM; activity change, positive = activation: at the top concentration
Outline: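 Firefly luciferase signal from promoter-reporter HEK293 cells was scaled between vehicle (0%) and zero RLU (-100%). Compounds were tested at final concentrations of up to 57.5 uM over 24 h at 37 degrees C. PTC124 at 50 uM final served as control inhibitor.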

Activity change, positive = activation, inactive:
Cc1ccc2c(c1)N(CC(=O)NCCCN1CCCCC1C)C(=O)c1cccnc1O2 (stereo not drawn) -2.82%
Cc1ccc2c(c1)N(S(=O)(=O)c1ccc3c(c1)NC(=O)CC(=O)N3)CCO2 -3.7%
COc1ccc(-n2c(=O)c3ccc(C(=O)NCc4ccc(C)cc4)cc3n(Cc3ccc(C)cc3)c2=O)cc1 -8.84%
COc1ccc(CNC(=O)c2nc(S(=O)(=O)Cc3ccccc3)ncc2Cl)cc1 -90.7%
Cc1ccc(-n2nc3c(=O)n(CC(=O)NCc4ccco4)nc(C)c3c2C)cc1 -16.6%
COc1ccc(CCNC(=O)CCCn2c(SCC(N)=O)nc3cc4c(cc3c2=O)OCO4)cc1OC -15.1%
CCOC(=O)N1CCc2c(sc3c2c(=O)n(Cc2ccccc2)c(=O)n3Cc2ccc(C)cc2)C1 -16.6%
COc1ccc(CNC(=O)C2=C(C)C(=O)OC23CCN(C(C)=O)CC3)cc1 -4.64%
CCCCOc1ccccc1C(=O)Nc1onc2c1CCCC2 -17.2%
CC1CCN(c2oc(-c3ccc(COc4ccc(Cl)cc4)o3)nc2C#N)CC1 -25.2%
CCOc1ccccc1CNC(=O)c1ccc(Cn2c(SCc3ccccc3)nc3cccnc32)cc1 4.89%
Cc1cc(C)c2nc(NC(=O)c3ccc(S(=O)(=O)N4CCC(C)CC4)cc3)sc2c1 -46.2%
CC(C)OC(=O)/C(C#N)=C/c1ccc(-c2ccc(Cl)c(Cl)c2)o1 4.55%
CCOC(=O)c1ccc(NC(=O)CC2C(=O)N(c3ccc(F)cc3)C(=O)N2Cc2ccc(C)cc2)cc1 (stereo not drawn) -32.7%
COc1ccc(Nc2cc(C(=O)NCCCN(C)Cc3ccccc3)c3ccccc3n2)cc1 -18.3%
CCOc1cc(C2Sc3ccccc3NC3=C2C(=O)c2ccccc23)ccc1O (stereo not drawn) -32.3%
COc1ccc(C(=O)Nc2ccccc2-c2nc3ccccc3s2)c(OC)c1 -22.5%
CCOC(=O)c1cnc2ccc(Cl)cc2c1Nc1ccc(OCC)cc1 -10.9%
Cc1cccn2c(=O)cc(COc3cccc(NC(=O)COc4ccccc4)c3)nc12 9.5%
COc1cccc(-c2nc3c(c(SCC(=O)Nc4cc(C)ccc4C)n2)Cc2c(CO)cnc(C)c2O3)c1 -10.3%
CC(=O)c1ccc(NC(=O)CSc2nc(C3CCCC3)nc3c2c(=O)n(C)c(=O)n3C)cc1 -0.686%
CC(=O)c1ccc(NC(=O)CCc2nc(-c3ccc(C)cc3)no2)cc1 -15.3%
Cc1nc(-n2nc(C)c(CCC(C)C)c2C)sc1C(=O)Nc1ccc(Br)cc1 26%
Cc1c(NC(=O)c2ccc(Br)o2)cccc1-c1nc2ccccc2o1 -32.4%
Cc1cccc(C)c1NC(=O)CCS(=O)(=O)c1cccc2nonc12 -6.68%
CCOc1ccccc1NC(=O)c1cc2c(=O)n(Cc3cccnc3)ccc2nc1C -6.37%
CCOC(=O)c1ccc(NC2=CC(c3ccc(F)cc3)N(c3ccc(C(=O)OCC)cc3)C2=O)cc1 (stereo not drawn) -1.58%
Cc1ccccc1Cn1c(SCc2ccc(C(=O)NC3CCCC3)cc2)nc2ccncc21 -4.95%
CCCSc1nc2sc3c(c2c(=O)n1-c1cccc(Br)c1)CC(C)(C)OC3 -6.35%
CCOC(=O)c1c(C)[nH]c(C)c1S(=O)(=O)N1CCC(C(=O)Nc2ccc(C)c(Cl)c2)CC1 -28.4%
CC(=O)Nc1ccc(Nc2ncnc3c2c(-c2ccccc2)cn3-c2ccc(C)c(Cl)c2)cc1 -36.2%
COc1ccccc1N=c1scc(-c2ccc(S(=O)(=O)N3CCCC3)cc2)n1C -77.9%
COc1ccccc1CNC(=O)CCNS(=O)(=O)c1cccc2nsnc12 -3.96%
Cc1nc2c(c(C)nn2-c2ccccc2)c(C)c1CCC(=O)NCCc1ccc(Cl)cc1 -13.4%
COc1cccc(NC(=O)N2CCN(C(=O)c3nsc4ccccc34)CC2)c1 -10.2%
COc1ccc(NC(=O)N2CCN3CCCCC3C2)cc1OC (stereo not drawn) -2.29%
CCOC(=O)c1cc(-c2ccccc2)n(-c2cccc(C(=O)N(C)c3ccc(C)cc3)c2)c1C -36.9%
CC(C)[C@H](O)C(=O)N[C@@H](C)C(=O)N[C@@H]1C(=O)N(C)CCc2ccccc21 -2.25%
Fc1ccc(N2CCN(Cc3cccn3-c3nnc(N4CCN(C5CCCCC5)CC4)s3)CC2)cc1 -6.45%
Cc1ccc(NC(=O)C2CCCN(c3cnccn3)C2)c(C)c1 (stereo not drawn) -2.51%
CCc1ccc(-c2nc(CSCC(=O)N3CCN(c4ccc(F)cc4)CC3)c(C)o2)cc1 -34.7%
CCc1ccccc1NC(=O)c1cc2c(Cl)nc3ccccc3c2s1 -42.6%
Nc1ncnc2nc[nH]c12 -1.78%
CCc1ccc(S(=O)(=O)c2nnn3c2nc(NCCNC(C)=O)c2cc(Cl)ccc23)cc1 0%
CC(C)(C)NC(=O)c1oc2ccccc2c1NC(=O)c1ccc(F)cc1 -2.51%
COc1ccc(CCN2C(=O)CN(C3CCC(C)CC3)C(=O)C2c2ccc(OC(C)C)c(OC)c2)cc1OC (stereo not drawn) -20.9%
CCc1nn(CCCC(=O)NC(C)c2ccccc2)c(=O)c2cc3occc3n12 (stereo not drawn) -11.3%
COCCN(CCOC)c1ncnc2c1c(-c1ccccc1)cn2-c1ccc(C)c(Cl)c1 -30.7%
Cc1ccc(Cn2cc(CCC(=O)NCc3ccc(OC(C)C)cc3)c3ccccc32)cc1 -20.8%
CCCCNC(=O)C(CC)Sc1nc2ccccc2c(=O)n1CCc1ccc(OC)c(OC)c1 (stereo not drawn) -5.8%
Cc1ccc(S(=O)(=O)c2nnn3c2nc(NCc2ccccc2Cl)c2sccc23)cc1 -15.2%
CCOC(=O)c1ccc(NC(=O)c2nn(C)c3c2COc2ccccc2-3)cc1 -1.67%
CC(C)c1ccc(OCc2cc(=O)n3c(-c4ccccc4)csc3n2)cc1 -18.5%
COc1cc(-c2cc(OC)c3c(C)oc(C)c3c(=O)c2)ccc1OC(=O)c1cccc(Cl)c1 -18.6%
COc1ccc(NC(=O)CCCN2C(=O)COc3ccc(C)cc32)cc1OC -11.8%
CCCCN1CCCC[C@H]1C(=O)Nc1c(C)cccc1C -13.9%
O=C(Cn1c(=O)n(-c2ccc(Cl)cc2)c(=O)c2c3c(sc21)CCC3)c1ccccc1 -9.62%
CCOC(=O)c1c(NC(=O)CSc2cn(CCNC(=O)c3ccccc3F)c3ccccc23)sc2c1CCCC2 -34.3%
CC(C)(C)OC(=O)N1CCC(c2c(C(=O)N3CCN(C(=O)c4ccco4)CC3)cnn2-c2ccccc2Cl)CC1 -18.6%
COCCCNC(=O)c1ccc2c(c1)NC(=O)C(C(C)C)N2 (stereo not drawn) -10%
O=C(Cn1c(=O)c2cccn2c2cccnc21)NCc1ccccc1F -9.73%
CC1=C(C(=O)Nc2ccc(C)cc2C)C(c2ccccc2F)n2nc(SCC(=O)c3ccc(C)cc3)nc2N1 (stereo not drawn) 0%
CCc1ccc(NC(=O)c2cnc3sc(N4CCCC4)nn3c2=O)cc1 -28.2%
Cc1cc2nc(-c3ccc(OCc4ccccc4)cc3)cc(C(F)(F)F)n2n1 -0.378%
COc1ccccc1NC(=O)C1CCC(CNS(=O)(=O)c2ccc3c(c2)CC(C)N3C(C)=O)CC1 (stereo not drawn) -48.7%
Cc1cc(-n2c(C)nc3ccccc3c2=O)ccc1NC(=O)c1ccc([N+](=O)[O-])cc1 -15%
O=C(Nc1ccc(S(=O)(=O)N2CCCCCC2)cc1)c1cc(=O)c2ccccc2o1 -7.04%
Cc1ccc(NC(=O)Cn2c(=O)n(Cc3ccc4c(c3)OCO4)c(=O)c3ccc(C(=O)NC4CCCCC4)cc32)c(C)c1 -9.93%
CCc1ccc(NC(=O)Cn2c(-c3cncs3)nc3ccccc32)cc1 -16.8%
CCn1c2ccccc2c2cc(CN3CCN(Cc4ccccc4C)CC3)ccc21 -21.1%
COc1ccccc1C(=O)Nc1ccc(OCc2cc(=O)n3cc(C)sc3n2)cc1 -4.22%
COc1ccc(C)cc1NC(=O)c1ccc2c(c1)nnn2C1CCCC1 -19.5%
Cc1ccc2[nH]c(=O)c3cc(C(=O)NCCc4ccc(Cl)cc4)sc3c2c1 -14.2%
O=C(c1ccc2c(c1)N(Cc1cccc(Cl)c1)C(=O)c1ccccc1S2)N1CCOCC1 -32.2%
c1ccc(OCCn2c(COc3ccccc3)nc3ccccc32)cc1 1.72%
O=C1c2oc3ccccc3c(=O)c2C(c2cccc(Cl)c2)N1c1ccccn1 (stereo not drawn) -15.8%
COc1ccc(S(=O)(=O)c2cnc(SCC(=O)Nc3cc(F)ccc3C)[nH]c2=O)cc1Cl -2.93%
CCC1CCCCN1C(=O)c1sc(-n2nc(C)c(Cc3ccccc3)c2C)nc1C (stereo not drawn) -9.97%
CC(=O)c1cccc(NC(=O)c2cc3c(s2)-c2c(C)cccc2OC3)c1 -38.9%
Cc1ccc(Cl)cc1NC(=O)CN1C(=O)C(C)(C)c2cc(S(=O)(=O)N3CCCCC3)ccc21 -38.6%
COc1cccc(OC(=O)CSc2nnc(-c3ccc4c(c3)OCO4)o2)c1 -53.3%
CC(C)CCN(C(=O)Nc1ccc(Cl)c(Cl)c1)C(C)c1cccs1 (stereo not drawn) -27%
CCOC(=O)c1c(S(=O)(=O)NCC(=O)NCc2ccccc2)c(C)n(C)c1C -15.2%
O=C1Nc2ccc(Cl)cc2[C@@](C#CC2CC2)(C(F)(F)F)O1 -38%
CCOC(=O)c1ccc(OC(=O)c2cn(-c3cccc(OC)c3)c(=O)c3ccccc23)cc1 -22.2%
CCc1ccc2c(c1)NC(c1ccc(OC)cc1)=NC(c1ccncc1)=N2 -7.54%
CCOc1ccccc1NC(=O)C(C)N(c1ccccc1)S(C)(=O)=O (stereo not drawn) -8.95%
COc1cc(/C=C/c2nc(C#N)c(N3CCC(C)CC3)o2)cc(OC)c1OC -31.6%
CC(=O)c1ccc(N2CCN(C(=O)CCS(=O)(=O)c3ccc4c(c3)oc(=O)n4C)CC2)cc1 10.2% [at 11.5 µM, percent change from vehicle, -100% = no light]
CCOc1ccc(NS(=O)(=O)c2ccc3[nH]cc(C(=O)NCC4CCCO4)c(=O)c3c2)cc1 (stereo not drawn) -10.1%
Nc1c(-c2nc(-c3ccc(F)cc3)cs2)c2ccccn2c1C(=O)c1ccc2c(c1)OCO2 5.94%
CCOc1ccc(N2CC(C(=O)NCc3nnnn3-c3ccc(C)c(C)c3)CC2=O)cc1 (stereo not drawn) -13.9%
CCSc1ncc(Cl)c(C(=O)Nc2sc3c(c2C(=O)NC)CCCC3)n1 0.535%
